Data: the supplement of paper PMC9046079
± gives the standard deviation of the averaged measurements. The list shows a part of the results.

Legend:
[1] = tested on: murine small intestinal organoids (ENR+CD Paneth differentiation); assay: cellular ATP (CellTiter-Glo 3D) relative to plate median (log10 fold change); higher = more viable cells; conditions: 6 d
[2] = tested on: murine small intestinal organoids (ENR+CD Paneth differentiation); assay: carbachol-stimulated secreted lysozyme activity relative to plate median (log10 fold change); higher = more Paneth cell lysozyme secretion; conditions: 6 d, carbachol 10 µM
[3] = tested on: murine small intestinal organoids (ENR+CD Paneth differentiation); assay: basal (non-stimulated) secreted lysozyme activity relative to plate median (log10 fold change); higher = more Paneth cell lysozyme secretion; conditions: 6 d
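For basal (non-stimulated) secreted lysozyme activity relative to plate median in this document: ISC-enriched organoid precursors grown as 2.5D pseudo-monolayer on Matrigel, compound given on day 0 and day 3, plate values LOESS-normalized before median fold change, three murine donors.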
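For cellular ATP (CellTiter-Glo 3D) relative to plate median in this document: 2.5D pseudo-monolayer culture of ISC-enriched organoids partly embedded atop Matrigel, compound added on day 0 and again on day 3, per-plate LOESS correction before median fold change.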

Row | Compound | cellular ATP (log10) ([1]; 0.08 µM) | cellular ATP (log10) ([1]; 0.4 µM) | cellular ATP (log10) ([1]; 2 µM) | cellular ATP (log10) ([1]; 10 µM) | carbachol-stimulated secreted lysozyme activity (log10) ([2]; 0.08 µM) | carbachol-stimulated secreted lysozyme activity (log10) ([2]; 0.4 µM) | carbachol-stimulated secreted lysozyme activity (log10) ([2]; 2 µM) | carbachol-stimulated secreted lysozyme activity (log10) ([2]; 10 µM) | basal (log10) ([3]; 0.08 µM) | basal (log10) ([3]; 0.4 µM) | basal (log10) ([3]; 2 µM) | basal (log10) ([3]; 10 µM)
1 | C[C@](O)(COc1ccc(C#N)cc1)C(=O)Nc1ccc(C#N)c(C(F)(F)F)c1 | 0.0013 ± 0.16 | -0.198 ± 0.51 | -0.0878 ± 0.28 | -0.367 ± 0.29 | 0.119 ± 0.11 | 0.159 ± 0.16 | 0.13 ± 0.21 | -0.0835 ± 0.0046 | 0.0355 ± 0.048 | 0.0277 ± 0.13 | 0.0356 ± 0.15 | -0.0586 ± 0.049
2 | O=C(O)CNC(=O)c1c(O)c2ccccc2n(Cc2ccccc2)c1=O | 0.149 ± 0.11 | 0.0776 ± 0.1 | 0.097 ± 0.17 | 0.000886 ± 0.052 | 0.0413 ± 0.025 | 0.0391 ± 0.086 | -0.0113 ± 0.026 | -0.0397 ± 0.11 | 0.0292 ± 0.02 | 0.0282 ± 0.097 | 0.0431 ± 0.036 | -0.0445 ± 0.037
3 | Cc1ccc(-n2nccn2)c(C(=O)N2CCN(c3nc4cc(Cl)ccc4o3)CC[C@H]2C)c1 [Suvorexant (MK-4305)] | 0.15 ± 0.019 | 0.249 ± 0.28 | 0.318 ± 0.31 | 0.208 ± 0.28 | 0.121 ± 0.13 | 0.0555 ± 0.087 | 0.0747 ± 0.086 | 0.0699 ± 0.038 | 0.198 ± 0.12 | 0.0797 ± 0.088 | 0.106 ± 0.091 | 0.0639 ± 0.12
4 | CCCN1CCO[C@@H]2c3cc(O)ccc3OC[C@H]21 | 0.313 ± 0.017 | 0.401 ± 0.092 | 0.273 ± 0.11 | 0.285 ± 0.17 | 0.0885 ± 0.0098 | 0.31 ± 0.08 | 0.148 ± 0.068 | 0.0842 ± 0.0067 | 0.0909 ± 0.058 | 0.144 ± 0.046 | 0.0891 ± 0.018 | 0.113 ± 0.038
5 | CCN(CC)C(=O)c1ccc(C2=CC3(CCNCC3)Oc3cccc(O)c32)cc1 | 0.27 ± 0.025 | 0.163 ± 0.16 | 0.291 ± 0.17 | 0.194 ± 0.16 | 0.0838 ± 0.12 | 0.132 ± 0.037 | 0.0809 ± 0.14 | -0.0392 ± 0.061 | 0.0526 ± 0.1 | 0.0187 ± 0.045 | 0.0656 ± 0.066 | -0.0561 ± 0.041
6 | CCOc1ccccc1-n1c(C(C)N2CCN(C(=O)COc3ccc(Cl)cc3)CC2)nc2ccccc2c1=O (centres undefined) [Erastin] | 0.225 ± 0.27 | 0.285 ± 0.21 | 0.38 ± 0.15 | 0.298 ± 0.45 | 0.14 ± 0.1 | 0.16 ± 0.15 | 0.105 ± 0.14 | -0.0128 ± 0.13 | 0.157 ± 0.026 | 0.158 ± 0.031 | 0.157 ± 0.12 | -0.0152 ± 0.13
7 | CCC(COC(=O)c1cc(OC)c(OC)c(OC)c1)(c1ccccc1)N(C)C (centres undefined) [Trimebutine] | -0.65 ± 1.1 | -0.209 ± 0.28 | -0.63 ± 0.65 | -0.407 ± 0.44 | -0.212 ± 0.35 | 0.0571 ± 0.059 | -0.149 ± 0.27 | -0.167 ± 0.33 | -0.106 ± 0.14 | 0.00169 ± 0.042 | -0.0897 ± 0.2 | -0.125 ± 0.15
